Test results from ChEMBL document CHEMBL4888484, “Replenishing the malaria drug discovery pipeline: Screening and hit evaluation of the MMV Hit Generation Library 1 (HGL1) against asexual blood stage Plasmodium falciparum ,using a nano luciferase reporter read-out” (2022).
In all, about 150,000 compounds went through this assay and about 540 (0.36%) showed an effect of 50% or more. This is one part of the list.

system: Plasmodium falciparum; test: Primary screen in NF54 nanoGlo assay, in single point, at 2uM, 72h; a lower Z score goes with more inhibition; format: functional, Erythrocyte; settings: timepoint 72 hour

In order of falling “% Inhibition” value:
1. O=C(Nc1nncs1)NC(C1CC1)C1CC1  33%
2. COc1ccc(-n2nc3nc(N4CCN(CCN(C)C)CC4)nc(-c4cccc(F)c4F)c3c2N)cc1  7%
3. Cc1nc(Cc2noc(CC3(O)CCCCC3)n2)no1  6%
4. O=S(=O)(CCn1cc(-c2coc(-c3ccccc3)n2)nn1)N1CCCC1  3%
5. COc1cc(C)ccc1CN[C@H]1CCC1(OC)OC  3%
6. CC(=O)N(C)CC(=O)OCCc1scnc1C  2%
7. CC(C)(C)n1ncc2c(=O)[nH]c(N3CCCCCCC3)nc21  1%
8. Cn1cc(S(=O)(=O)N2C[C@H]3CCC(=O)c4cccc2c43)cn1  1%
9. COc1ccc(OC)c(CNC(=O)c2ccc3c(c2)C(=O)N(Cc2ccncc2)C3=O)c1  0%
10. CC(C)c1nc(Cn2ccnc2[C@H]2CCOC2)cs1  -1%
11. Cc1ccc([C@@H](O)CS(=O)(=O)Cc2c(C)noc2C)cc1C  -1%
12. Cc1cccc(C(=O)N2CCc3cc(CNS(=O)(=O)c4ccc(C)c(C)c4)ccc32)c1  -2%
13. CN(C)CCNC(=O)Cn1c(-c2ccccc2)nn(-c2ccc(Cl)cc2)c1=O  -2%
14. O=C(N[C@H]1CCN(c2ccc3nncn3n2)C1)OCCCc1cnc2ncnn2c1  -3%
15. CCc1nnc(-c2ccc3ccn(CC(=O)N4CCN(c5ccccc5)CC4)c3c2)o1  -3%
16. O=C(NCCc1ccncc1)c1ccc(OCC(=O)N2CCCCC2)cc1  -4%
17. Cc1nc(C)c(C(=O)NCC2CCN(c3cnsn3)CC2)o1  -5%
18. O=C(C[C@H]1CCC2(CCOCC2)CO1)NCC1(CO)CCCC1  -7%
19. Cc1ccc(C(=O)N(C)CCc2noc(-c3cc4cc(Cl)ccc4[nH]3)n2)cc1F  -7%
20. COCc1cn([C@@H]2CC[C@H]3CCOc4ccccc4C(=O)N4CCN(Cc5ccc(Cl)c(F)c5)C[C@H]4C(=O)NC[C@H]2O3)nn1  -7%
21. CN1CCN(Cc2nc(-c3ccoc3)no2)c2ccccc21  -8%
22. CC1=CC[C@H]2CN(Cc3cccc(OCCO)c3)C[C@H]2C1  -8%
23. Cc1nc(NC(=O)NCc2cnn(CCF)c2)nn1C  -8%
24. C=Cc1ccc(Cn2cnc3onc(C)c3c2=O)cc1  -8%
25. CCCn1c(=O)n(CCC(=O)N2CCN(S(=O)(=O)N3CC(C)OC(C)C3)CC2)c2ccccc21 (centres undefined)  -9%
26. Cc1cccc(NC(=O)c2ccc(Nc3ccnc(-c4ccc(F)cc4)n3)cc2)c1  -10%
27. COc1ccc(-n2nc(C)c3c(N4CCCN(C(=O)CC(C)C)CC4)nc(C4CC4)nc32)cc1  -10%
28. Cc1cnn(Cc2ccc(Cl)cc2)c1NC(=O)NCC1(C)COC1  -10%
29. Cc1cccc(-c2ncc(C(=O)N3CCCCC3)c(N(C)C3CCCCC3)n2)c1  -12%
30. CC1(C(=O)N[C@H]2c3ccccc3C[C@@H]2O)CCC(=O)NC1 (some centres undefined)  -12%
31. COC1(C)CN(C(=O)[C@H]2C[C@@H]2c2cccc(Cl)c2)C1  -12%
32. CCc1cnc(C)nc1NC1CCN(C(=O)Nc2ccccc2)CC1  -13%
33. Cc1ccccc1-n1nc(C(=O)N2CCCCCC2)nc1-c1ccccc1  -13%
34. CC(=O)Oc1ccc(N2C(=O)C3C(Cc4c[nH]c5ccccc45)NC4(C(=O)Nc5c4ccc(C)c5C)C3C2=O)cc1 (centres undefined)  -14%
35. COC[C@@]12CCN(C(=O)COc3ccccc3)C[C@@H]1CN(S(C)(=O)=O)C2  -14%
36. O=C(COc1ccc2c(c1)OCO2)N1CCN(C(=O)c2ccco2)CC1  -15%
37. CCCc1nnc(NC[C@@H]2C[C@H](CO)N(C)[C@@H]2c2ccccc2F)o1  -15%
38. Cn1cccc1C(=O)C(=O)N1CCN(Cc2ccc3c(c2)OCO3)CC1  -17%
39. O=C(N[C@H]1CCCN(Cc2cccc(O)c2)C1)c1cncnc1  -18%
40. COc1cccc(OC)c1OCc1nc(CN(CC(C)C)C(=O)c2ccccc2F)cs1  -19%
41. O=C1O[C@H]2CN(c3ncccc3Cl)C[C@H]2N1C1CCCC1  -19%
42. CCN(CCCNS(C)(=O)=O)c1ccc(C)cc1  -20%

In order of rising Z score:
1. O=C(Nc1nncs1)NC(C1CC1)C1CC1  -4.8
2. COc1ccc(-n2nc3nc(N4CCN(CCN(C)C)CC4)nc(-c4cccc(F)c4F)c3c2N)cc1  -0.86
3. Cc1nc(Cc2noc(CC3(O)CCCCC3)n2)no1  -0.7
4. O=S(=O)(CCn1cc(-c2coc(-c3ccccc3)n2)nn1)N1CCCC1  -0.57
5. CC(=O)N(C)CC(=O)OCCc1scnc1C  -0.45
6. COc1cc(C)ccc1CN[C@H]1CCC1(OC)OC  -0.4
7. Cn1cc(S(=O)(=O)N2C[C@H]3CCC(=O)c4cccc2c43)cn1  -0.11
8. CC(C)(C)n1ncc2c(=O)[nH]c(N3CCCCCCC3)nc21  -0.07
9. COc1ccc(OC)c(CNC(=O)c2ccc3c(c2)C(=O)N(Cc2ccncc2)C3=O)c1  0.08
10. Cc1ccc([C@@H](O)CS(=O)(=O)Cc2c(C)noc2C)cc1C  0.09
11. CC(C)c1nc(Cn2ccnc2[C@H]2CCOC2)cs1  0.17
12. Cc1cccc(C(=O)N2CCc3cc(CNS(=O)(=O)c4ccc(C)c(C)c4)ccc32)c1  0.24
13. CN(C)CCNC(=O)Cn1c(-c2ccccc2)nn(-c2ccc(Cl)cc2)c1=O  0.37
14. O=C(N[C@H]1CCN(c2ccc3nncn3n2)C1)OCCCc1cnc2ncnn2c1  0.41
15. CCc1nnc(-c2ccc3ccn(CC(=O)N4CCN(c5ccccc5)CC4)c3c2)o1  0.41
16. O=C(C[C@H]1CCC2(CCOCC2)CO1)NCC1(CO)CCCC1  0.74
17. O=C(NCCc1ccncc1)c1ccc(OCC(=O)N2CCCCC2)cc1  0.75
18. Cc1nc(C)c(C(=O)NCC2CCN(c3cnsn3)CC2)o1  0.78
19. Cc1nc(NC(=O)NCc2cnn(CCF)c2)nn1C  0.86
20. CN1CCN(Cc2nc(-c3ccoc3)no2)c2ccccc21  0.88
21. Cc1cccc(NC(=O)c2ccc(Nc3ccnc(-c4ccc(F)cc4)n3)cc2)c1  0.9
22. COCc1cn([C@@H]2CC[C@H]3CCOc4ccccc4C(=O)N4CCN(Cc5ccc(Cl)c(F)c5)C[C@H]4C(=O)NC[C@H]2O3)nn1  0.9
23. Cc1cnn(Cc2ccc(Cl)cc2)c1NC(=O)NCC1(C)COC1  1.06
24. Cc1cccc(-c2ncc(C(=O)N3CCCCC3)c(N(C)C3CCCCC3)n2)c1  1.12
25. C=Cc1ccc(Cn2cnc3onc(C)c3c2=O)cc1  1.13
26. CCCn1c(=O)n(CCC(=O)N2CCN(S(=O)(=O)N3CC(C)OC(C)C3)CC2)c2ccccc21 (centres undefined)  1.16
27. Cc1ccc(C(=O)N(C)CCc2noc(-c3cc4cc(Cl)ccc4[nH]3)n2)cc1F  1.3
28. CC1(C(=O)N[C@H]2c3ccccc3C[C@@H]2O)CCC(=O)NC1 (some centres undefined)  1.47
29. COc1ccc(-n2nc(C)c3c(N4CCCN(C(=O)CC(C)C)CC4)nc(C4CC4)nc32)cc1  1.47
30. CC1=CC[C@H]2CN(Cc3cccc(OCCO)c3)C[C@H]2C1  1.48
31. CCCc1nnc(NC[C@@H]2C[C@H](CO)N(C)[C@@H]2c2ccccc2F)o1  1.57
32. Cn1cccc1C(=O)C(=O)N1CCN(Cc2ccc3c(c2)OCO3)CC1  1.61
33. O=C(N[C@H]1CCCN(Cc2cccc(O)c2)C1)c1cncnc1  1.61
34. COC[C@@]12CCN(C(=O)COc3ccccc3)C[C@@H]1CN(S(C)(=O)=O)C2  1.68
35. CCN(CCCNS(C)(=O)=O)c1ccc(C)cc1  1.72
36. CC(=O)Oc1ccc(N2C(=O)C3C(Cc4c[nH]c5ccccc45)NC4(C(=O)Nc5c4ccc(C)c5C)C3C2=O)cc1 (centres undefined)  1.83
37. COc1cccc(OC)c1OCc1nc(CN(CC(C)C)C(=O)c2ccccc2F)cs1  1.85
38. CCc1cnc(C)nc1NC1CCN(C(=O)Nc2ccccc2)CC1  2.02
39. COC1(C)CN(C(=O)[C@H]2C[C@@H]2c2cccc(Cl)c2)C1  2.3
40. O=C1O[C@H]2CN(c3ncccc3Cl)C[C@H]2N1C1CCCC1  2.4
41. Cc1ccccc1-n1nc(C(=O)N2CCCCCC2)nc1-c1ccccc1  2.54
42. O=C(COc1ccc2c(c1)OCO2)N1CCN(C(=O)c2ccco2)CC1  2.79
